Test results reported in the supplement of paper PMC11417369.
± gives the standard deviation of the averaged measurements. The list shows a part of the results.

Test system: PfAP2-LT AP2 domain (GST-tagged)
Experiment: gcPBM binding intensity (ln(normalized median fluorescence intensity)); higher = stronger DNA binding
Procedure, shortened: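 For binding intensity, the highest Masliner-normalised natural-log median intensity across replicate spots of either probe orientation was taken. Protein bound to the array was stained with Alexa488 anti-GST antibody and scanned at 488 nm. The protein, GST-tagged P. falciparum DNA-binding domains from E. coli at about 25 μg on average, had been applied for 1 h to an Agilent 4 × 180k array of primer-extended double-stranded 36-bp intergenic genomic probes and negative controls.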

Sequence	gcPBM binding intensity (ln)
TCTATGTAGTTTTTATGTACTAAATAAATAAATAAA [XGTACX_site2599]	8.19 ± 0.36
TAGAAGCAGAAACACACACACATACATACACATACA [CACACA_site1467]	9.87 ± 0.35
GCATTCATTTTTAATACACACAAAAAAAAAATAAAA [CACACA_site2408]	8.76 ± 0.36
TTTTCAATATATATTTGTACTTTATTTTATGATATT [GTGCAC_negctrl_site732]	8.85 ± 0.52
TAAATGTCCTTATTTGCACACACACCGATAAGAAAT [CACACA_site5723]	9.38 ± 0.18
ACTATTAACAGTGTAGTGCAAAAAGGTTAATTATTA	9.08 ± 0.64
CTAACAACCAAACGCACACACACAAAAAAAAAAATA [CACACA_site400]	9.95 ± 0.61
TTTGAAATGATATATAAACACACATATATATATATA [CACACA_site9170]	9.56 ± 0.3
ATATTGAATTCCAACACATGCAAAACTTTCGGTTTT [TGCATGCA_site485]	8.69 ± 0.38
AACAACTATTAATTTACACACATGTATATATCTTAC [CACACA_site7459]	9.3 ± 0.38
TATTAAAAGGTGAGTACACACATATATGCGTATATA [CACACA_site2102]	9.15 ± 0.38
TATTTTACACATTTACGTACATAAATATATATATAT [XGTACX_site8788]	8.99 ± 0.41
AGACATTTTTAAGCAAAACATTCATCATCTTATAAT [CACACA_negctrl_site1539]	8.57 ± 0.43
TACGCACAAAAATATACACACACACCGATATATTTA [CACACA_site9213]	9.74 ± 0.2
TCGTGTGTAATATTATATATATATATATAATATATA [TGCATGCA_negctrl_site289]	9.1 ± 0.25
TTTTAAGGTGTGAAGGTGCAAAAAGGTAAATAGGAA	8.97 ± 0.6
TAAACAGAAGCACATACACACACTCAAAAAAAAAAA [CACACA_site3051]	9.53 ± 0.39
AAAATACATAAACACACACACACACCGATATATATA [CACACA_site9186]	10.43 ± 0.092
CACAAACACCCAAACACACACACACCGACATACATA [CACACA_site4410]	10.1 ± 0.46

Sequence	gcPBM binding intensity (ln)
AAATTGTCAAAACACGCACACACATATACATAATAA [CACACA_site1743]	9.62 ± 0.36
GTGATACGCTATAGGACACACGCTTAATAATTATAA [CACACA_site1694]	8.77 ± 0.44
ATCATAAATTATTATACACACAATACGTGACCTATT [CACACA_site1906]	9.13 ± 0.41
TCTTTTATATTGTAGAGTACATATTTTCAATATATA [XGTACX_site5586]	8.47 ± 0.46
TTCTTTTATAAAAGTAGTACAATTATATTGTAATTA [XGTACX_site2855]	8.36 ± 0.48
TTCCTCTTAATATGTGCACACTAAATTATAACATAA [CACACA_site3260]	8.93 ± 0.41
TATAGTTTTATTATTTATGTGTTAAAATTATACAAG [TGCATGCA_negctrl_site246]	8.46 ± 0.47
CATACCATACATAAAACACACAAAATTTACATAATA [CACACA_site3100]	9.12 ± 0.43
ACCCATTTTAATTTAGTGCACATTTTACCTTTATAC	9.16 ± 0.43
AAAAAAATAACAAAGTGTACTTTTATATTTTACATA [XGTACX_site8954]	8.41 ± 0.48
TTCTGCAGCAATGTTTTTTTTAAATATTTATATGGT [CACACA_negctrl_site1815]	8.71 ± 0.42
TTTTTTTCTTTTTCAAAAAAAAAAAAAAAAAAAATA [GTGCAC_negctrl_site329]	7.66 ± 0.4
GCTAGTTTTTTTTGGCGTACAGTACCGGTTTACTTT [XGTACX_site2606]	9.14 ± 0.38
TTTAATTCCATAAGTAAACACACAAATGCCAAAATT [CACACA_site9049]	8.91 ± 0.4
AATATTTATAAATTTACACACACACGGGTGAACATA [CACACA_site6979]	9.4 ± 0.27
ATTCTAAATTAAAATACACACATATATACATAATAT [CACACA_site2792]	8.94 ± 0.42
AAAAAAAAAAAAAAATGTACATATTAAGTATAATTA [XGTACX_site4616]	8.62 ± 0.54
CAATTTGGTGTACAGGTGCACATGCCTCACGATAAA [GTGCAC_site9650]	9.04 ± 0.38
TTAGCTCAATTTTTGGGTACACACAAATGTATAATA [XGTACX_site5003]	8.82 ± 0.38

Sequence	gcPBM binding intensity (ln)
GAAAAATGTAAATACATATATGTACACAAATATATA [GTGCAC_negctrl_site557]	8.93 ± 0.35
TATGTATGCCTGTTTTGTACTTAAGAAAATGTTGCT [XGTACX_site8443]	8.88 ± 0.38
AAAAAAAAAAAAAAAAGTACATAATATAAAATCTAA [XGTACX_site6019]	8.51 ± 0.71
TATGTAAAAACAGGCACACATATATCATATATATAT [CACACA_site619]	9.11 ± 0.42
AAAAAAAAATATCACACACACATAAATATAAACCAA [CACACA_site2279]	9.64 ± 0.21
AGAGCATAATAAAACACACACATACATACATATATA [CACACA_site935]	9.63 ± 0.25
ATTGGGTTCATCAGCACACACAACATCATGTAATAA [CACACA_site5093]	9.31 ± 0.51
TAAAACATCAAGGGGTGTACAAAAAAGATGAACAGG [XGTACX_site6929]	9.01 ± 0.42
AAAAAAAAAAAAACTACACACATAAAATATATTGTG [CACACA_site805]	8.94 ± 0.38
AGGCACTTATAATAATGTACATAAATAAAAAGAAAA [XGTACX_site6037]	8.79 ± 0.56
TATAAATATATATGTACACACATATACATGTTGAAT [CACACA_site3118]	9.05 ± 0.42
TATAAACATAAATATACACACAAACATCTATGTATT [CACACA_site4804]	9.11 ± 0.33
ATTTGTAATATTAAATGTACAGGTAAGAAATATCAG [XGTACX_site1562]	8.77 ± 0.42
TAAGGAAAAAAAATATGTACTTATAGTTCCTTCTTT [XGTACX_site2202]	8.6 ± 0.51
GGATTCAAAAAAAAAAATAAAAGTAAATAATAAATA [TGCATGCA_negctrl_site348]	8.44 ± 0.43
TAAATATATTTATACACACACACCAAAGCAATAGAT [CACACA_site7393]	9.76 ± 0.34
ATTACAACATTTTATACACACGTGATTATTAATTTT [CACACA_site5581]	8.97 ± 0.38
TTCAATATACATATGTGTACTAAAATAAATAGAAAA [XGTACX_site5708]	8.61 ± 0.44
AAGAACAGAACGTACACACACATATTTATATTTATA [CACACA_site7594]	9.55 ± 0.3
